GI50 and TGI data for four molecules are collected here from PubChem BioAssay (NCI).

The assay relates to NCI-H322M lung. Description: growth of human tumour cells (NCI), 48 h.

Molecules are shown by their SMILES.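 Values below derive from 48-hour exposures of cells grown in 96-well plates, with endpoints linearly interpolated between the two concentrations bracketing the appropriate inhibition level. Here, GI50 denotes the concentration required for 50% inhibition of growth. TGI: total growth inhibition.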 Where only a bound is given, the exact number is not on record here.

In the case of `Cn1ccnc1C(=O)/C=C/C=C/c1ccc(C(=O)Nc2ccc(F)cc2)cc1`, the GI50 was 8.14 µM and the TGI is > 33.3 µM.
Take `Clc1ccc2oc3c(NCCCn4ccnc4)c4ccccc4nc3c2c1`: the GI50 was 11.3 µM and the TGI was > 100 µM.
The corresponding values for `CCNC(=O)N1CCc2cc(OC)c(OCCc3ccc(OC)cc3)cc2C1c1ccc(Cl)cc1C` (stereo not drawn) are 2.02 µM and > 100 µM.
In the same order, the values of `COc1ccc2c(c1)c(/C=N/Nc1ccnc3cc(Cl)ccc13)cn2C` are 0.686 µM and 1.82 µM.
